Source: the supplement of paper PMC3334620
In all, about 33,000 sequences were measured (“E-score (-0.5 to 0.5)”: median about -0.017, highest 2% from about 0.3 on). The list shows a part of the results.

Target: T1, Sut1 (UniProt P53032)
T1 sequence: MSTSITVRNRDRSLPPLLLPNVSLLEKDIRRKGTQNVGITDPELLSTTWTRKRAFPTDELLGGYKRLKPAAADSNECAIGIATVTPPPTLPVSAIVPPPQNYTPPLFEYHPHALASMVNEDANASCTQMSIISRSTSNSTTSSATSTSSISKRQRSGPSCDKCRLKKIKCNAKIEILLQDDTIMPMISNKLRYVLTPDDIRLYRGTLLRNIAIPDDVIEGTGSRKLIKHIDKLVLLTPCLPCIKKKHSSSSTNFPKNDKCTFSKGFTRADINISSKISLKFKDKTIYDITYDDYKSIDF
Test: PBM E-score (8-mer binding enrichment) (E-score (-0.5 to 0.5)); higher = stronger / more preferred TF binding; most listed sequences are background and not binding sites
Details: protein concentration: 200 nM; construct: GST-full length
How it was run: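 E-scores (a modified Wilcoxon-Mann-Whitney statistic) were assigned by the Universal PBM Analysis Suite to every ungapped eight-base word pooled with its reverse complement. The input came from universal all-10-mer Agilent arrays made double-stranded by primer extension and probed with GST-tagged yeast transcription factors at about 100-200 nM. Fluorescent anti-GST detected bound protein, and masliner normalised the scans.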

Going from CAAGGATA to ACCACTTG, the “PBM E-score” value falls from 0.0528 to -0.0333.

Compared with CACGGTAG, TAATTATA is higher in “PBM E-score” value: -0.103 for the first, 0.349 for the second.

Compared with CTGAATAA, GGCGAAGA is lower in “PBM E-score” value: 0.165 for the first, -0.0451 for the second.

First: AGACGGGG
Second: ATAACCCC
The “PBM E-score” value of the first is lower: -0.082 for the first, -0.0245 for the second.

Going from CCGTGTAC to CAGTACTA, the “PBM E-score” value falls from 0.147 to 0.0282.

Compared with ATCGGGGC, ACCAAGGA is higher in “PBM E-score” value: -0.147 for the first, 0.0457 for the second.

First: ACTCTCCC
Second: AATAGACT
The “PBM E-score” value of the first is higher: -0.0254 for the first, -0.0415 for the second.

First: GAGCGATC
Second: TCGGCAAA
The “PBM E-score” value of the first is lower: -0.128 for the first, 0.102 for the second.

Compared with ATCGCACG, GACATAGC is higher in “PBM E-score” value: -0.165 for the first, 0.0267 for the second.

First: AAGCGCGA
Second: ATCAGTTG
The “PBM E-score” value of the first is lower: 0.00168 for the first, 0.0304 for the second.

Going from GATCTTGC to CGACCAGA, the “PBM E-score” value falls from 0.0765 to -0.076.

Going from CTTCCATC to CGTCCGAC, the “PBM E-score” value falls from -0.0797 to -0.14.

First: CATCCCCC
Second: GGAACGAC
The “PBM E-score” value of the first is lower: -0.286 for the first, -0.147 for the second.

Compared with GACGAAGC, CTAATAGA is higher in “PBM E-score” value: -0.0148 for the first, 0.0839 for the second.

First: GCCGCGAA
Second: ATATAGTA
The “PBM E-score” value of the first is lower: -0.113 for the first, 0.276 for the second.

First: CTCGAAGC
Second: CGAAATAG
The “PBM E-score” value of the first is lower: -0.0293 for the first, 0.0281 for the second.

Compared with ACCAGGAG, ACAAGACC is higher in “PBM E-score” value: -0.183 for the first, -0.138 for the second.

First: AAGTAGAA
Second: AGAGGTAC
The “PBM E-score” value of the first is higher: 0.145 for the first, -0.28 for the second.

First: TCTGCGCA
Second: CTCATAAG
The “PBM E-score” value of the first is lower: -0.0828 for the first, -0.00665 for the second.

Compared with CCTATATC, AATTCCTC is lower in “PBM E-score” value: 0.01 for the first, -0.14 for the second.

Going from GTCGTGGA to GATTTTAC, the “PBM E-score” value rises from -0.197 to 0.166.

First: ACTTGAGC
Second: ACATGAGT
The “PBM E-score” value of the first is lower: -0.227 for the first, -0.074 for the second.

Compared with AACCAAGA, AAGGGATA is lower in “PBM E-score” value: 0.0648 for the first, -0.0268 for the second.

Compared with CGACAACC, GCAAGCGA is higher in “PBM E-score” value: -0.231 for the first, -0.157 for the second.

Going from AAAGAGCT to AGTTGAAT, the “PBM E-score” value rises from -0.0565 to 0.252.

Compared with CAGCTCGC, CTGAAAGC is higher in “PBM E-score” value: -0.204 for the first, 0.0793 for the second.

First: ATGGACTG
Second: TCCACCAA
The “PBM E-score” value of the first is lower: 0.0002 for the first, 0.00651 for the second.

Compared with AATTTCTC, CGACTACA is lower in “PBM E-score” value: 0.238 for the first, -0.0233 for the second.

Going from AGCTATAG to AGCAAAGA, the “PBM E-score” value rises from -0.136 to -0.00358.

Compared with GGGGGTAC, AGGACCGC is higher in “PBM E-score” value: -0.0797 for the first, -0.00375 for the second.

Going from GAAATTTC to GAGTACTA, the “PBM E-score” value falls from 0.149 to 0.13.

Compared with ATGTGCGA, CGTGCGCC is higher in “PBM E-score” value: -0.0365 for the first, -0.0359 for the second.

First: ATGGCGGA
Second: ATTGGTCC
The “PBM E-score” value of the first is lower: -0.0131 for the first, 0.0796 for the second.

Compared with CACCAAGA, GCGGATAC is higher in “PBM E-score” value: -0.111 for the first, 0.037 for the second.

Going from AGGAGACT to AACGTTGG, the “PBM E-score” value rises from -0.0506 to -0.0132.

Compared with CACGCTCA, AGTGGCAA is lower in “PBM E-score” value: 0.0901 for the first, -0.101 for the second.

First: ATAAGTCG
Second: AACCCTCC
The “PBM E-score” value of the first is higher: 0.0862 for the first, -0.325 for the second.

Going from CTCCACAA to CCGAACGG, the “PBM E-score” value rises from -0.0276 to 0.235.

First: CTAAAGGA
Second: GGGTAGGA
The “PBM E-score” value of the first is higher: 0.0933 for the first, -0.0425 for the second.

First: ATTTTTTG
Second: GCCCAAAA
The “PBM E-score” value of the first is higher: 0.132 for the first, -0.0622 for the second.

First: CAGTCATG
Second: CAATACTA
The “PBM E-score” value of the first is lower: -0.193 for the first, -0.0656 for the second.

Going from AAACGTTG to CCCGGGTA, the “PBM E-score” value rises from -0.176 to -0.0559.

First: GACTCCTA
Second: AGCGTATG
The “PBM E-score” value of the first is higher: 0.0134 for the first, -0.216 for the second.

First: AGCATCGC
Second: CTTAGAAG
The “PBM E-score” value of the first is higher: -0.0602 for the first, -0.112 for the second.

First: AACGACTT
Second: CATTCTAC
The “PBM E-score” value of the first is lower: -0.0422 for the first, 0.0945 for the second.

First: ACGTCGTG
Second: GATCTACC
The “PBM E-score” value of the first is higher: -0.0891 for the first, -0.128 for the second.

Compared with CCCCACAG, CGGCTTAA is higher in “PBM E-score” value: -0.36 for the first, 0.185 for the second.

Going from ACCGTGCG to AACATACA, the “PBM E-score” value rises from -0.0849 to 0.194.

Going from AGCAATAG to GTTCCTCA, the “PBM E-score” value falls from -0.0816 to -0.215.

Compared with AGAGGCTA, GTAGGCAA is higher in “PBM E-score” value: -0.217 for the first, -0.132 for the second.

Going from AGTTTCCA to TATCCACA, the “PBM E-score” value falls from 0.134 to 0.0115.

First: CTATGGAC
Second: ACGTCTTG
The “PBM E-score” value of the first is lower: -0.059 for the first, -0.0309 for the second.

First: ATTGCTGG
Second: CGTAGCTA
The “PBM E-score” value of the first is lower: -0.0853 for the first, 0.0208 for the second.

First: AACTCTGG
Second: ACCCGCCC
The “PBM E-score” value of the first is higher: -0.0642 for the first, -0.0839 for the second.

First: GTACCTAA
Second: AATAATCC
The “PBM E-score” value of the first is lower: -0.0405 for the first, 0.0878 for the second.

Going from GATTTATA to CGGGCTGC, the “PBM E-score” value falls from 0.255 to -0.15.

First: CTGGCTAC
Second: ATGTGTCA
The “PBM E-score” value of the first is lower: -0.124 for the first, 0.188 for the second.

First: CACATATG
Second: ACAATCCT
The “PBM E-score” value of the first is lower: -0.0886 for the first, 0.103 for the second.

Going from AACCCTGC to TATGAAAA, the “PBM E-score” value rises from -0.13 to 0.191.

Going from GAACTGGA to ATGGTCAG, the “PBM E-score” value rises from -0.0218 to 0.0354.

Going from CGCGTGAA to AGGATTAA, the “PBM E-score” value rises from -0.0846 to -0.0189.

Compared with AGAGACAA, TGAGCTAA is lower in “PBM E-score” value: 0.157 for the first, 0.102 for the second.

First: CAAACTCC
Second: GATAGGCA
The “PBM E-score” value of the first is higher: 0.356 for the first, 0.0117 for the second.

Compared with GGAGCTAA, AACATGGT is lower in “PBM E-score” value: 0.058 for the first, -0.173 for the second.

Going from AGACTACT to ACAAATGA, the “PBM E-score” value rises from -0.0623 to 0.129.

Going from AGGTAAGG to CGAGCCGC, the “PBM E-score” value rises from -0.0834 to -0.00209.

First: ATCCTAAC
Second: GGACGCCA
The “PBM E-score” value of the first is higher: 0.0866 for the first, -0.332 for the second.

First: CATAGGGG
Second: GCCGACCA
The “PBM E-score” value of the first is lower: -0.348 for the first, -0.203 for the second.

Going from AGCGCCTG to ACTTACAC, the “PBM E-score” value rises from -0.219 to 0.0193.

Going from GACCATTA to AATGAGTC, the “PBM E-score” value falls from 0.171 to 0.0558.

First: CAATGTCG
Second: CTTAGCGA
The “PBM E-score” value of the first is higher: -0.0012 for the first, -0.128 for the second.

Compared with GCGTTGCC, AAGAAGCT is higher in “PBM E-score” value: -0.119 for the first, 0.102 for the second.

First: ATGCTTAG
Second: AACAAGCG
The “PBM E-score” value of the first is higher: -0.0198 for the first, -0.0413 for the second.

Going from CCTTACAC to TACACAGA, the “PBM E-score” value rises from 0.0691 to 0.105.

Compared with TACCGAAA, ATTGTTCC is lower in “PBM E-score” value: 0.102 for the first, 0.0563 for the second.

Going from AGTCGGCA to GCGCAGCC, the “PBM E-score” value falls from 0.05 to 0.0307.

First: AGGCGGAG
Second: AGAGCTGA
The “PBM E-score” value of the first is higher: 0.234 for the first, -0.141 for the second.

First: AGAGATTG
Second: AAGCTCGG
The “PBM E-score” value of the first is lower: 0.129 for the first, 0.235 for the second.

First: ACCGCTTA
Second: CAATATTA
The “PBM E-score” value of the first is lower: -0.175 for the first, 0.296 for the second.

First: CTCCTAAA
Second: TAGGAAAA
The “PBM E-score” value of the first is lower: 0.0137 for the first, 0.0863 for the second.

First: CGAATGTA
Second: AATCGCTG
The “PBM E-score” value of the first is higher: 0.024 for the first, -0.0129 for the second.

First: ATGTAATC
Second: AATCCCCC
The “PBM E-score” value of the first is higher: 0.12 for the first, -0.212 for the second.

Compared with GCGGCAAA, CTGCAAAC is lower in “PBM E-score” value: -0.104 for the first, -0.209 for the second.

Compared with CGCCATTA, CAGCAAGA is lower in “PBM E-score” value: 0.0246 for the first, 0.00586 for the second.

First: GACTTGAC
Second: CCCTGTCC
The “PBM E-score” value of the first is higher: 0.125 for the first, -0.278 for the second.

Compared with AATGAAGC, CCGTCTTA is higher in “PBM E-score” value: -0.0403 for the first, 0.0383 for the second.
